Source: patent US20180256644A1 (ALPINE IMMUNE SCIENCES, published 2018)
Where two headings read alike, the source gives them in different places.

T1: human CD226 (human, UniProt Q15762 19-336)
T1 sequence: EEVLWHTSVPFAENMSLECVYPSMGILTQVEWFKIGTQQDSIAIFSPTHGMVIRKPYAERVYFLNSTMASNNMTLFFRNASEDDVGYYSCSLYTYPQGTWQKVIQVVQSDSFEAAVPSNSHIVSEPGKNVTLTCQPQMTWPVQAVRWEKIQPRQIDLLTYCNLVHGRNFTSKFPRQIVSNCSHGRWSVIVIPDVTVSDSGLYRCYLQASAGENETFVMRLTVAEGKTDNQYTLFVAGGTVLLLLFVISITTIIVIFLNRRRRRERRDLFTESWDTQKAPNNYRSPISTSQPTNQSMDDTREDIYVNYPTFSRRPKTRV

T2: human TIGIT (human, UniProt Q495A1 22-244)
T2 sequence: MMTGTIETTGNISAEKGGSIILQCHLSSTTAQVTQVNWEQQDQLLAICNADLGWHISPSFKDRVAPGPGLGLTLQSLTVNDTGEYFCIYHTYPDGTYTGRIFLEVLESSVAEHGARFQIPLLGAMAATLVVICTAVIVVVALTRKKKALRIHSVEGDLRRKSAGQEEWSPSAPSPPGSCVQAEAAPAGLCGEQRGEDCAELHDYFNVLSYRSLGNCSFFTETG

T3: CD96 (UniProt P40200 22-585, limits assumed)
T3 construct: whole, on cells
T3 sequence (looked up): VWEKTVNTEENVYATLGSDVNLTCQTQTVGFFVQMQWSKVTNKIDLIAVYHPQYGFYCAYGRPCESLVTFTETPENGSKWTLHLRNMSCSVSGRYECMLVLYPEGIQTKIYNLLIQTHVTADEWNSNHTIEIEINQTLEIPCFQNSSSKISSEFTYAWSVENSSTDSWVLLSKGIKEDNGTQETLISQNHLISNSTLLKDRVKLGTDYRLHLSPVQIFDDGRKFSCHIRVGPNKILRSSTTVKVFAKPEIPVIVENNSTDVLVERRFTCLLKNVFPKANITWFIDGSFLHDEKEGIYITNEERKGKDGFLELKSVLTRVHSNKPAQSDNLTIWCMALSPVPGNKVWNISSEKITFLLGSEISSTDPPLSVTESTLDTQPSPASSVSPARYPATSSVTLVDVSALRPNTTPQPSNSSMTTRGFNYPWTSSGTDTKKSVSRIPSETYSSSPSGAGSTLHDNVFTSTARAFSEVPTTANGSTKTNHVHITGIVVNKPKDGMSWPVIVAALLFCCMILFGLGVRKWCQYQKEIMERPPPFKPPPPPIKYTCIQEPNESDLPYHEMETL


Tests used:
Experiment in all cases: flow cytometry, transfected cells
human CD226 [1] = molecular target: T1, human CD226
human TIGIT [2] = molecular target: T2, human TIGIT
CD96 = molecular target: T3, CD96
human CD226 [3] = molecular target: T1, human CD226; remark: listed apart in the source
human TIGIT [4] = molecular target: T2, human TIGIT; remark: listed apart in the source

Binder	MFI (human CD226 [1])	MFI parental ratio (human CD226 [1])	MFI (human TIGIT [2])	MFI parental ratio (human TIGIT [2])	MFI (CD96)	MFI parental ratio (CD96)	MFI (human CD226 [3])	MFI (human TIGIT [4])
Wild type CD155 IgV Fc fusion (Fc fusion, also called unmodified CD155 IgV-Fc) PGTGDVVVQAPTQVPGFLGDSVTLPCYLQVPNMEVTHVSQLTWARHGESGSMAVFHQTQGPSYSESKRLEFVAARLGAELRNASLRMFGLRVEDEGNYTCLFVTFPQGSRSVDIWLAAA[human IgG1 Fc with C220S R292C N297G V302C (EU numbers) not written out]	3720	1	2720	1	3080	1		
CD112 IgV S118Y Fc fusion (Fc fusion) QDVRVQVLPEVRGQLGGTVELPCHLLPPVPGLYISLVTWQRPDAPANHQNVAAFHPKMGPSFPSPKPGSERLSFVSAKQSTGQDTEAELQDATLALHGLTVEDEGNYTCEFATFPKGYVRGMTWLAAA[human IgG1 Fc with C220S R292C N297G V302C (EU numbers) not written out]							2000	2920

Further lines, results first:

MFI (human CD226 [1])	MFI parental ratio (human CD226 [1])	MFI (human TIGIT [2])	MFI parental ratio (human TIGIT [2])	MFI (CD96)	MFI parental ratio (CD96)	MFI (human CD226 [3])	MFI (human TIGIT [4])	Binder
3590	1	2940	1.1	2510	0.8			CD155 IgV P18T, F91S, R94H Fc fusion (Fc fusion) PGTGDVVVQAPTQVTGFLGDSVTLPCYLQVPNMEVTHVSQLTWARHGESGSMAVFHQTQGPSYSESKRLEFVAARLGAELRNASLRMSGLHVEDEGNYTCLFVTFPQGSRSVDIWLAAA[human IgG1 Fc with C220S R292C N297G V302C (EU numbers) not written out]
4170	1.1	2910	1.1	2620	0.8			CD155 IgV A81V, L83P Fc fusion (Fc fusion) PGTGDVVVQAPTQVPGFLGDSVTLPCYLQVPNMEVTHVSQLTWARHGESGSMAVFHQTQGPSYSESKRLEFVAARLGVEPRNASLRMFGLRVEDEGNYTCLFVTFPQGSRSVDIWLAAA[human IgG1 Fc with C220S R292C N297G V302C (EU numbers) not written out]
